Data published in patent US20260216242A1 (ALMAC DISCOVERY, published 2026).

What was measured:
[1] = molecular target: T1, Mouse ALPPL2 (leucine zipper) (mouse); assay: BLI, antigen immobilised, KD apparent
T1 construct: Whole entry: cysteine-stabilised leucine zipper fusion; also called mALPPL2; NCBI #NP_031459
T1 chain: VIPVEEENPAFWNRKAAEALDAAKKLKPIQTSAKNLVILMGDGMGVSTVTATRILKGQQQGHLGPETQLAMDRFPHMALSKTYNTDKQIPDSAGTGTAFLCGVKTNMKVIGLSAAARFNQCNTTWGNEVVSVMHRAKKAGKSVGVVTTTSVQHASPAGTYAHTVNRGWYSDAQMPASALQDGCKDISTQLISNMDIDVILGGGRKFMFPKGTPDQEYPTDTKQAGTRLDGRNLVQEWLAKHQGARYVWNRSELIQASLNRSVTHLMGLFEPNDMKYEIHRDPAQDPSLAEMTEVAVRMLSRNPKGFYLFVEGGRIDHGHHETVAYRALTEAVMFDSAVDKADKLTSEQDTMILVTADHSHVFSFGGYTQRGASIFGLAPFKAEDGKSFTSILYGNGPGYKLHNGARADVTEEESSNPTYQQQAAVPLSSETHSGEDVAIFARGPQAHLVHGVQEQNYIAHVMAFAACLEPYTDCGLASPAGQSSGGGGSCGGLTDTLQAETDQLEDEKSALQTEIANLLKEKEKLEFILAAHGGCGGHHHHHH

[2] = molecular target: T2, Cynomolgus monkey ALPP (leucine zipper) (cynomolgus monkey); assay: BLI, antigen immobilised, KD apparent
T2 construct: Whole entry: cysteine-stabilised leucine zipper fusion; also called CynoALPP; NCBI #XP_045223825
T2 chain: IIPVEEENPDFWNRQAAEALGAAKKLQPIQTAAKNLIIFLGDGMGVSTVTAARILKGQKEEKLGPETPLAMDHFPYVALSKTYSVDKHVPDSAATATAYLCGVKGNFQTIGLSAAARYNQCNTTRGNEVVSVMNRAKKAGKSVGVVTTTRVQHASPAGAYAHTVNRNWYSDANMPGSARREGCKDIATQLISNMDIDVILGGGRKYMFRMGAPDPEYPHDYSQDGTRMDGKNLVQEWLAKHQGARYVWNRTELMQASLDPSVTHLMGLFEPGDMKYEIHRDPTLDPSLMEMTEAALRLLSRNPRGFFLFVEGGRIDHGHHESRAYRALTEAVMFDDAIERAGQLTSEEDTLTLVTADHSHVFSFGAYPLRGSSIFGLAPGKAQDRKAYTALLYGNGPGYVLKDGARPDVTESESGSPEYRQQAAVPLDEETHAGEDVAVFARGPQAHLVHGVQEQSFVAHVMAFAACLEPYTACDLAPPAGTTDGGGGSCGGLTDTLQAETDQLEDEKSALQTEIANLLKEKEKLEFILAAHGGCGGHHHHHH

[3] = molecular target: T1, Mouse ALPPL2 (leucine zipper); assay: BLI, antigen immobilised
Method: (§1) Binding kinetics were determined using the Biolayer Interferometry (BLI) Octet K2 or R4 system (Sartorius). […] For KD apparent measurements, the ALPP proteins were immobilised in sodium acetate pH5 buffer to AR2G sensors using amine coupling. To measure 1:1 interactions, AHC biosensors were used to immobilise Fc-fused proteins. All assays were conducted in HBS-EP with a plate temperature of 25° C. Ka (M⁻¹s⁻¹), Kd (s⁻¹) and KD (nM) values were determined using Octet Data Analysis High Throughput software (Sartorius) for Biolayer Interferometry.
To assess cross-species reactivity of the ALPP/ALPPL2 targeting VHH-hFc fusions, BLI was conducted using mouse ALPPL2 (NCBI #NP_031459), rhesus monkey ALPP (NCBI #XP_028687061) and cynomolgus monkey ALPP (NCBI #XP_045223825). […] BLI was conducted as described above.

ALPI His homodimer = molecular target: T3, ALPI His homodimer (human, UniProt P09923 20-503); assay: BLI, antigen immobilised; very low response
T3 construct: Whole entry with His tag; used in ELISA and BLI; also called hALPI
T3 sequence: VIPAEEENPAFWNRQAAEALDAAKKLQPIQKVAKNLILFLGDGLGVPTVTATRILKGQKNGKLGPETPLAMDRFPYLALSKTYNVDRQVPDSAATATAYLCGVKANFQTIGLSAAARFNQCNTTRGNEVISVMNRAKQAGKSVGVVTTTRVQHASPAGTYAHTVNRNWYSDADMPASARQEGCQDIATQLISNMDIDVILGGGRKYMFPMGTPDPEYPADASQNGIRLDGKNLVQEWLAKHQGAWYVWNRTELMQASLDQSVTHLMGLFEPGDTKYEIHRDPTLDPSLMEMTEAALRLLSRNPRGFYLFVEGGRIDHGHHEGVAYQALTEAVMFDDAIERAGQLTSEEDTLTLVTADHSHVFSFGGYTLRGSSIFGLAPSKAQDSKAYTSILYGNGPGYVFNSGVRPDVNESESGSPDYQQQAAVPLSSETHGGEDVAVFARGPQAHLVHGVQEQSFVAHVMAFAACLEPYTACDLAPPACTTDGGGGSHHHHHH
Method: as §1
BLI data (Table 9) confirms the high affinity binding of VHH-hFc fusion proteins to ALPP and ALPPL2.

B1: E10-hFc (S239C) (Fc fusion)
chain: QVQLVESGGGLVQAGGSLRLSCAVSGRALSDYNIGWFRQAPGKEREFVARKTWDGSSTRYDDSVKGRFTVSIEDAKNTAYLQMSSLKTEDTAVYYCAAGRYSRARGWEYDYWGQGTQVTVSSGGGGSGGGGSGGGGS[human IgG1 Fc with changes not spelt out]
notes: [G4S]3 linker; also called #435
Kd [1]: 2.59 nM | koff [1]: 0.0042 s⁻¹ | kon [1]: 1.62e+06 M⁻¹ s⁻¹ | Kd [2]: < 0.01 nM | koff [2]: < 1e-07 s⁻¹ | kon [2]: 622000 M⁻¹ s⁻¹

B2: F05-hFc (S239C) (Fc fusion)
chain: QVQLVESGGGLVQAGGSLRLSCAASGRAFGDYNIGWFRQAPGKEREFVARRTWDGSSTRYDDSVKGRFTVSIDNAKNTAYLQMNSLKTEDTAVYYCAAGRYSRVRGWEYDYWGQGTQVTVSSGGGGSGGGGSGGGGS[human IgG1 Fc with changes not spelt out]
notes: [G4S]3 linker; also called #436
Kd [1]: 0.72 nM | koff [1]: 0.00228 s⁻¹ | kon [1]: 3.91e+06 M⁻¹ s⁻¹ | Kd [2]: < 0.01 nM | koff [2]: < 1e-07 s⁻¹ | kon [2]: 106000 M⁻¹ s⁻¹

B3: A06-hFc (S239C) (Fc fusion)
chain: QVHLVESGGGLVQAGGSLRLSCAASGRTFLSMGWFRQAPGKEREFVAAISWTGGSTGYADSVKGRFTISRESDKETMYLQMNSLKPEDTAVYYCAARGDVYYGGDDATRYKYWGQGTQVTVSSGGGGSGGGGSGGGGS[human IgG1 Fc with changes not spelt out]
notes: [G4S]3 linker; also called #340
Kd [1]: 0.047 nM | koff [1]: 1.82e-05 s⁻¹ | kon [1]: 392000 M⁻¹ s⁻¹ | Kd [2]: < 0.01 nM | koff [2]: < 1e-07 s⁻¹ | kon [2]: 664000 M⁻¹ s⁻¹

B4: E06-hFc (S239C) (Fc fusion)
chain: QVHLVESGGGLVQAGGSLRLSCAASRRSFSEYAMGWFRQAPGKEREFVAAIGWSGVIEYADSVKGRFTISRDNAKDTVYLQMNSLKPEDTAVYYCAAGLGIRVVSQTPAYWGQGTQVTVSSGGGGSGGGGSGGGGS[human IgG1 Fc with changes not spelt out]
notes: [G4S]3 linker
binding result [3]: no binding | Kd [2]: 0.23 nM | koff [2]: 0.00025 s⁻¹ | kon [2]: 974000 M⁻¹ s⁻¹

B5: D04-hFc (S239C) (Fc fusion)
chain: QVQLVESGGGLVQPGGSLRLSCAASESTFSINVMGWYRQAPGKQRELVATITSGDITNYADSVKGRFTISRDNAENTVYLRTNSLKPEDTAVYYCNARGEYHSGNEYDYWGQGTQVTVSSGGGGSGGGGSGGGGS[human IgG1 Fc with changes not spelt out]
notes: Built from parts; also called #371
binding result [3]: no binding

B6: D10-hFc (S239C) (Fc fusion)
chain: QVQLVESGGGLVQPGGSLRLSCAASGSIFSVNTMGWYRQAPGKQRDLVAVATSGGTIHYADSVKGRFTISRDNAKNTVYLQMNSLKPEDTAVYYCNLVVPYGMIAGDHDYWGQGTKVTVSSGGGGSGGGGSGGGGS[human IgG1 Fc with changes not spelt out]
notes: [G4S]3 linker
binding result [3]: no binding | Kd [2]: < 0.01 nM | koff [2]: < 1e-07 s⁻¹ | kon [2]: 1.09e+06 M⁻¹ s⁻¹

B7: B01-hFc (S239C) (Fc fusion)
chain: QVQLVESGGGLVQAGGSLRLSCEVTRSPMPIDTMAWYRQAPGRQRELVAIISRSGSTNYADSVKGRFTISRNDTKSTMYKSTMYLKMNTLELEDTGVYYCNAVGLWNGAEYWGQGTQVTVSSGGGGSGGGGSGGGGS[human IgG1 Fc with changes not spelt out]
notes: Built from parts; also called #341
binding result [3]: no binding | Kd (ALPI His homodimer): 148 nM

B8: C07-hFc (S239C) (Fc fusion)
chain: QVQLVESGGGLVQAGESLRLACAASGTIFSGNAVGWYRQAPEKQREWVSSITDYGDTDYAEAVKGRFTISRDNAKNTVYLQMNSLKPEDTAVYYCYVYQRGESEEYWGQGTQVTVSSGGGGSGGGGSGGGGS[human IgG1 Fc with changes not spelt out]
notes: Built from parts
binding result [3]: no binding
